From PubChem BioAssay (NCATS)
“And” between values parts separate entries of the source, which are not always exact repeats. Identical values can stand only once. Inconclusive results, whose numbers are uncertain, are shown with a selection of clear calls. For part of these data: A potency beside an inconclusive call is a rough fit, not a confirmed value. For part of these data: “Side channel” marks fits to a control or component signal instead of the main read-out. Some structures have more than one record in an assay (separate samples or runs), and their calls can disagree. The source made the active and inactive calls. Unless noted, calls follow the shape of the dose curve; as a rule, active = well fitted curve in the direction sought with a large enough effect; inconclusive = small, poorly fitted or top-dose-only effect, or another doubt; inactive = no such curve, though single readings can be large; an effect the other way counts as inactive or inconclusive.

How the values were obtained:
[1] = qHTS assay for measurement of the activity of small molecule inhibitors on Zika virus induced Caspase-3 activity in human iPSC derived neural progenitor cells (hNPCs) (AID 1224857); also: nearly all actives have a fitted effect of over 65% in size
Outline: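 Human iPSC-derived neural progenitor cells pretreated 1 hr with compounds, then infected with Zika virus (2 FFU/cell) for 6 hours at 37 C. Caspase-3/7 measured by Caspase-Glo luminescence; % inhibition calculated from induction scaled to uninfected (0%) and infected (100%) wells.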

[2] = qHTS Screen of the MIPE 4.0 Collection Against Ewings Sarcoma (RDES) (AID 1259252); also: nearly all actives have a fitted effect of over 35% in size;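 as to viability (percent of control): 100% = DMSO-treated cells and 0% = medium-only wells without cells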
Outline: (§1)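 Log-phase cells in RPMI with 5% FBS attached for 4 h, then received compounds as a titration for 48 h at 37C, 5% CO2. Viability was read by CellTiter-Glo luminescence and normalized to DMSO and no-cell wells.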

[3] = qHTS Screen of the MIPE 4.0 Collection Against Ewings Sarcoma (TC71) (AID 1259253); also: nearly all actives have a fitted effect of over 40% in size
Outline: as §1

[4] = P-glycoprotein substrates identified in KB-8-5-11 adenocarcinoma cell line, qHTS therapeutic library screen (AID 1346987); also: nearly all actives have a fitted effect of over 65% in size
Outline: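 Compounds are pinned in dose-response onto KB-8-5-11 cells (500 cells/well, colchicine-free medium) and left 72 h at 37 degree C. CellTiter-Glo luminescence then yields AC50 values.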

[5] = qHTS Screen of the MIPE 4.0 Collection Against Ewings Sarcoma (EW8) (AID 1259255); also: nearly all actives have a fitted effect of over 35% in size;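 as to viability: 100% = DMSO-treated cells and 0% = medium-only wells without cells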
Outline: as §1

[6] = qHTS Screen of the MIPE 4.0 Collection Against Ewings Sarcoma (TC32) (AID 1259256); settings: TC32 Ewing sarcoma viability, CellTiter-Glo, 48 h; viability (percent of control): at 45.8 µM (top of the series); also: nearly all actives have a fitted effect of over 45% in size;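 as to viability (percent of control): 100% = DMSO-treated cells and 0% = medium-only wells without cells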
Outline: as §1

[7] = qHTS assay for cell viability of HEK293 cells (AID 743288); settings: ATP luminescence (CellTiter-Glo), 18 h; max response: stronger effect = lower value; also: nearly all actives have a fitted effect of over 50% in size; as to max response: % is scaled to controls: 0 for no effect and ±100 for the full control effect
Outline: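 Readout is luciferase-coupled ATP content (CellTiter-Glo luminescence, 30 min room temperature) as a measure of metabolically competent cells. Parental HEK293 cells were plated 5 h or more before compound addition, then treated 18 h at 37 C.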

[8] = qHTS assay to identify small molecule inhibitors of chordoma cells - UCH-1 (AID 1259355); also: nearly all actives have a fitted effect of over 55% in size
Outline: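 Screening used approved and investigational drugs in 15-point titration against 800 seeded cells per well. A fixed combination of auranofin with camptothecin, doxorubicin, rubitecan and topotecan followed compound addition, and growth was scored by CellTiter-Glo after 48hr.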

[9] = qHTS assay to identify small molecule inhibitors of chordoma cells - UCH-2 (AID 1259356)
[10] = P-glycoprotein substrates identified in KB-3-1 adenocarcinoma cell line, qHTS therapeutic library screen (AID 1346986);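 also: potency is for cytotoxicity meaning loss of cell viability; nearly all actives have a fitted effect of over 60% in size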
Outline: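 In 1536-well format, 500 cells/well received pinned compound titrations and were incubated 72 h, 5% CO2. Viability was read by CellTiter-Glo; cytotoxic if AC50 < 10 uM and efficacy >50%.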

[11] = biological target: Tyrosine-protein phosphatase non-receptor type substrate 1 (Homo sapiens) + Leukocyte surface antigen CD47 (Homo sapiens) (UniProt P78324+Q08722); assay: CD47-SIRPalpha protein protein interaction - LANCE assay qHTS validation (AID 1347057; active = well fitted curve in the direction sought with a large enough effect in the signal ratio, with a control signal flat, not every such curve was filed as active; inconclusive = small, poorly fitted or top-dose-only effect, or effect the other way, or a change in a side signal; inactive = no such curve, though single readings can be large or run the other way; the % refers to the signal ratio)
Outline: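 Inhibition of soluble CD47/SIRPalpha ectodomain association by titrated compounds, measured as 665/615 nm time-resolved FRET ratio after sequential 30 min room-temperature incubations.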

[12] = NS1 protein of Zika virus - qHTS assay to identify small molecule inhibitors in human HEK 293 cells (AID 1347053); also: nearly all actives have a fitted effect of over 55% in size
Outline: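 Readout was TR-FRET using paired anti-NS1 antibodies after 24 h infection of HEK 293 cells with ZIKV MR766 (MOI = 0.5). Compound preceded virus by 1 h; reduced signal reflects lower NS1 expression.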

[13] = Natriuretic polypeptide receptor (hNpr1) antagonism - Pilot counterscreen GloSensor control cell line (AID 1347045; calls by dose curve)
Outline: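 Control counterscreen: luciferase cGMP-biosensor HEK293 cells (no Npr1) received compound for 30 min at room temperature after GloSensor substrate loading. Luminescence was measured before and 20 min after soluble guanylyl cyclase activation by 50 uM nitroprusside.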

[14] = biological target: Atrial natriuretic peptide receptor 2 (Homo sapiens) (UniProt P20594); assay: Natriuretic polypeptide receptor (hNpr2) antagonism - Pilot subtype selectivity assay (AID 1347050; calls by dose curve)
Outline: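 Luminescence from a genetically encoded cGMP luciferase biosensor in hNpr2-expressing HEK293 cells is read before and 20 min after adding 1 nM hNppC. Test compounds, in interplate 1:5 titrations, are added 30-50 min ahead of the agonist.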
Potency is read from the fitted curve at half-maximal effect; tags tell the direction and shape of the fitted curve.

Sequence of UniProt P78324 (P78324 whole entry, looked up, the tested form may be a part): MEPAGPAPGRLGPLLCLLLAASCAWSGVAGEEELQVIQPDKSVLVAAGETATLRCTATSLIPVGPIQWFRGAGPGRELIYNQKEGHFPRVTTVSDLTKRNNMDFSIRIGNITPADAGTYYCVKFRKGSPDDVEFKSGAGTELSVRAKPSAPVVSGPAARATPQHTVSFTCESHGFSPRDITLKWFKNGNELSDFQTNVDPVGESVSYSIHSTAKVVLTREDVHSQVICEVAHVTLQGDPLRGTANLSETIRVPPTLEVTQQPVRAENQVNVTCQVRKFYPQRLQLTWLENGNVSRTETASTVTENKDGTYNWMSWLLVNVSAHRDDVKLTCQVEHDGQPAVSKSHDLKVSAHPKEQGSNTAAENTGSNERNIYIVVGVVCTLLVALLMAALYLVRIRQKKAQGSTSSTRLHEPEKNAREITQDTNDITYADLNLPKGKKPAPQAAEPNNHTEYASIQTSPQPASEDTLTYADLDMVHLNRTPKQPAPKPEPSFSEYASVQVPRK
Sequence of UniProt P78324 (Q08722 whole entry, looked up, the tested form may be a part): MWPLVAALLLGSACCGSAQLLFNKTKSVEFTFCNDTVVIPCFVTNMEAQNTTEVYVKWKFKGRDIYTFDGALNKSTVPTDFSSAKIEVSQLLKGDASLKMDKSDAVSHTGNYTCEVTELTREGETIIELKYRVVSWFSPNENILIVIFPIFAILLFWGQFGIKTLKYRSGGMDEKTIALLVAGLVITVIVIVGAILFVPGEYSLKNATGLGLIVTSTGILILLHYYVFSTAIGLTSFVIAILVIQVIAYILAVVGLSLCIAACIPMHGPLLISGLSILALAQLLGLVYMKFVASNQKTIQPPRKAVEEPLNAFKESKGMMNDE
Sequence of UniProt P20594 (P20594 whole entry, looked up): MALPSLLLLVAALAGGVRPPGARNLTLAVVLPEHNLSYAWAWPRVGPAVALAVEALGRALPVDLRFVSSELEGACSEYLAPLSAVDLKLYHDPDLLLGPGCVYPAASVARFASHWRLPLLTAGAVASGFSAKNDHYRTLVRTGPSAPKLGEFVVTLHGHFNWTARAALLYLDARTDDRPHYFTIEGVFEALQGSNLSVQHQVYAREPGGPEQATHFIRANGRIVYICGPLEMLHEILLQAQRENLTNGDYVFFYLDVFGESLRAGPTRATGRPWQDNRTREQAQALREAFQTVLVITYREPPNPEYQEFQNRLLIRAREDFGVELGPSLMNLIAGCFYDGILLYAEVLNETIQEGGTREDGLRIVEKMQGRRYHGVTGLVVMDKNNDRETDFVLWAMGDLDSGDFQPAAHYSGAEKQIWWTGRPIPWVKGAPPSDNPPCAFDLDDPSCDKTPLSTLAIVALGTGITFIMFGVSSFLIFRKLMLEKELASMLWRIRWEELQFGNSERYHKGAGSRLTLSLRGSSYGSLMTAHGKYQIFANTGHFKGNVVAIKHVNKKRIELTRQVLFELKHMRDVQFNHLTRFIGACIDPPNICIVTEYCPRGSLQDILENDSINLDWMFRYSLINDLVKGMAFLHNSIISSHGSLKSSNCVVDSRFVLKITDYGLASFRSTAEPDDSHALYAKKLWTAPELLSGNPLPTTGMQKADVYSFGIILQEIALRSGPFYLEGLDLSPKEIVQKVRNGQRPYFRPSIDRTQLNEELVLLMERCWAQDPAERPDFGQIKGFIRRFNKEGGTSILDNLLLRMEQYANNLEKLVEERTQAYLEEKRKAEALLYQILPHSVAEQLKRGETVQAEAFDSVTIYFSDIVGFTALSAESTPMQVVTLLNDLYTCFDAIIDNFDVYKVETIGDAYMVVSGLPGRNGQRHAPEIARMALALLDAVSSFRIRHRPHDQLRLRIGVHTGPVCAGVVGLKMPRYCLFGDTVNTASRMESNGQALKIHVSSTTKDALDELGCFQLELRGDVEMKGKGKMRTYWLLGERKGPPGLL

O=S(=O)(CC1CS1)c1ccc(Oc2ccccc2)cc1 (stereo unspecified)
Potency [1]: inconclusive: 9.35 µM [inhibitor, full curve, poor fit] | Potency [2]: inconclusive: 23.5 µM [inhibitor, single point] | Potency [3]: inconclusive: 23.5 µM [inhibitor, partial curve] | Potency [4]: inactive

CCCN1CCC[C@@H]2Cc3nc(N)ncc3C[C@H]21
Potency [1]: inconclusive: 14.1 µM [inhibitor, partial curve, poor fit]

Cc1c(Cl)c(=O)oc2cc(OP(=O)(OCCCl)OCCCl)ccc12
Potency [1]: inconclusive: 6.31 µM [inhibitor, full curve, poor fit]

COC1=C[C@@H]2[C@@H]3Cc4ccc(OC)c(O)c4[C@]2(CCN3C)CC1=O
Potency [1]: inactive | Potency [2]: active: 4.69 µM | Potency [5]: inconclusive: 14.8 µM [inhibitor, partial curve]

O=C(O)CCCOc1ccc(Cl)cc1Cl
Potency [1]: inconclusive: 89.1 µM [inhibitor, partial curve, poor fit]

C[C@]12Cc3cn[nH]c3C[C@@H]1CC[C@@H]1[C@@H]2CC[C@@]2(C)[C@H]1CC[C@]2(C)O
Potency [1]: inactive

COP(=S)(OC)Oc1ccc(S(N)(=O)=O)cc1
Potency [1]: inactive

CCOC(=O)CC(SP(=S)(OC)OC)C(=O)OCC (stereo unspecified)
Potency [1]: inconclusive: 28.2 µM [inhibitor, full curve, poor fit]

CC(=Cc1csc(C)n1)[C@@H]1C[C@H]2O[C@@H]2CCC[C@H](C)[C@@H](O)[C@@H](C)C(=O)C(C)(C)[C@@H](O)CC(=O)O1
Potency [1]: inactive

NCC1(CC(=O)O)CCCCC1
Potency [1]: inconclusive: 6.31 µM [inhibitor, partial curve, poor fit] | Potency [2]: inconclusive: 33.2 µM [inhibitor, single point] | Potency [3]: inconclusive: 37.2 µM [inhibitor, single point] | Potency [5]: inconclusive: 33.2 µM [inhibitor, single point] | Potency [6]: inconclusive: 33.2 µM [inhibitor, single point]

O=C1CC[C@@]2(O)[C@H]3Cc4ccc(O)c5c4[C@@]2(CCN3CC2CC2)[C@H]1O5
Potency [1]: inconclusive: 26.4 µM [inhibitor, partial curve, poor fit] | Potency [3]: inactive | Potency [5]: inactive

C[CH2][Hg][S]c1ccccc1C(=O)O
Potency [7]: active: 50.1 µM | Potency [1]: inconclusive: 31.6 µM [inhibitor, single point] | Potency [8]: active: 3.16 µM | Potency [9]: active: 3.66 µM

C[C@H](N)[C@H](O)c1ccc(O)c(O)c1
Potency [1]: inconclusive: 35.5 µM [inhibitor, partial curve, poor fit]

CC(C)NP(=O)(NC(C)C)OP(=O)(NC(C)C)NC(C)C
Potency [1]: inactive

CC(Cc1ccc(OCC(=O)O)cc1)NCC(O)c1cccc(Cl)c1 (stereo unspecified)
Potency [1]: inconclusive: 17.8 µM [inhibitor, single point]

CCOP(=S)(OCC)Oc1ccc2c(C)c(Cl)c(=O)oc2c1
max response [7]: inactive: -5.48%

Oc1cccc2cccnc12
Potency [7]: inconclusive: 79.4 µM [cytotoxic, single point]

COc1ccc2c(c1OC)CN1CCc3cc4c(cc3C1C2)OCO4 (stereo unspecified)
Potency [10]: active: 9.2 µM

N#C/C(=C/c1ccc(O)c(O)c1)C(N)=S
Potency [10]: inconclusive: 29.1 µM [inhibitor, single point] | Potency [11]: inconclusive: 16.5 µM [side channel, falling, single point]

CN(N=O)c1ccc(O)c(O)c1
Potency [11]: active: 18.5 µM

CCC(=O)OC1CCC2C3CCC4=CC(=O)CC[C@@]4(C)C3CC[C@]12C (stereo partly specified)
Potency [2]: inactive | Potency [4]: inconclusive: 11.8 µM [inhibitor, single point]

CCOC(=O)Nc1ccc(NCc2ccc(F)cc2)cc1N
Potency [2]: inconclusive: 23.5 µM [inhibitor, partial curve] | Potency [6]: active: 20.9 µM

CC(=O)OCC1=C(C(=O)O)N2C(=O)[C@@H](N)[C@@H]2SC1
Potency [2]: inactive | Potency [6]: inactive | Potency [4]: inactive

CC(C)N(CCNC(=O)CN1CCCC1=O)C(C)C
Potency [2]: inactive | Potency [3]: inconclusive: 16.6 µM [inhibitor, partial curve, poor fit] | Potency [6]: inactive

CN1CCN(c2ccc([N+](=O)[O-])c3no[n+]([O-])c23)CC1
Potency [2]: inconclusive: 37.2 µM [inhibitor, single point] | Potency [6]: active: 18.7 µM

COC1=CC(C)=C[C@@H](C)[C@@H](O)[C@@H](C)CC(C)=CC=C[C@H](OC)[C@H]([C@@H](C)[C@@H](O)[C@H](C)[C@@]2(O)C[C@@H](O)[C@H](C)[C@@H](C(C)C)O2)OC1=O
Potency [2]: active: 0.0059 µM | Potency [3]: inconclusive: 20.9 µM [inhibitor, partial curve] | Potency [12]: active: 0.0012 µM

COc1cccc2c1[C@]13CCN(CC4CC4)[C@H](C2)[C@]1(OC)CCC(=O)C3
Potency [3]: inactive

O=C(N[C@@H](COc1ccc2[nH]c(=O)[nH]c2c1)c1ccccc1)c1cccn(Cc2ccc(F)c(F)c2)c1=O
Potency [2]: active: 23.5 µM | Potency [3]: inconclusive: 20.9 µM [inhibitor, single point] | Potency [12]: inconclusive: 29.6 µM [inhibitor, single point]

CN1[C@H]2CC(O)C[C@H]1[C@H]1O[C@H]12 (stereo partly specified)
Potency [2]: inconclusive: 29.6 µM [inhibitor, single point] | Potency [4]: inconclusive: 29.6 µM [inhibitor, single point]

CN1C(=O)CCS(=O)(=O)C1c1ccc(Cl)cc1 (stereo unspecified)
Potency [2]: inconclusive: 18.7 µM [inhibitor, partial curve, poor fit] | Potency [3]: inconclusive: 23.5 µM [inhibitor, partial curve, poor fit] | Potency [6]: inconclusive: 5.26 µM [inhibitor, full curve, poor fit]

Fc1ccc(C(OCCN2CCN(CCCc3ccccc3)CC2)c2ccc(F)cc2)cc1
Potency [2]: inconclusive: 29.6 µM [inhibitor, single point] | Potency [3]: active: 18.7 µM | Potency [6]: active: 26.4 µM | Potency [8]: active: 31.6 µM | Potency [9]: inconclusive: 25.9 µM [cytotoxic, single point] | Potency [13]: inconclusive: 26.1 µM [inhibitor, single point] | Potency [12]: inconclusive: 37.2 µM [inhibitor, single point] and inconclusive: 31.6 µM [inhibitor, partial curve, poor fit] and inconclusive: 35.5 µM [inhibitor, single point]

COc1ccc(CC2NCCc3cc(OC)c(OC)cc32)cc1OC (stereo unspecified)
Potency [2]: active: 23.5 µM | Potency [3]: inconclusive: 26.4 µM [inhibitor, single point] | Potency [6]: inactive

CC(N[C@H]1C[C@H]1c1ccccc1)c1ccc2c(c1)OCCO2 (stereo partly specified)
Potency [2]: inconclusive: 16.6 µM [inhibitor, partial curve, poor fit] | Potency [3]: inconclusive: 37.2 µM [inhibitor, partial curve, poor fit] | Potency [6]: inconclusive: 37.2 µM [inhibitor, single point] | Potency [4]: inactive and inconclusive: 20.6 µM [inhibitor, single point]

CCc1c(C(=O)C(N)=O)c2c(OCC(=O)O)cccc2n1Cc1ccccc1
Potency [2]: inconclusive: 5.26 µM [inhibitor, full curve] | Potency [5]: inconclusive: 26.4 µM [inhibitor, single point] | Potency [6]: inconclusive: 26.4 µM [inhibitor, single point]

Cc1c(N)nc([C@H](CC(N)=O)NC[C@@H](N)C(N)=O)nc1C(=O)N[C@H](C(=O)N[C@@H](C)[C@H](O)[C@@H](C)C(=O)N[C@@H](C(=O)NCCc1nc(-c2nc(C(=O)NCCC[S+](C)C)cs2)cs1)[C@@H](C)O)C(O[C@H]1O[C@H](CO)[C@H](O)[C@@H](O)[C@@H]1O[C@H]1O[C@H](CO)[C@@H](O)[C@H](OC(N)=O)[C@H]1O)c1cnc[nH]1 (stereo partly specified)
Potency [2]: active: 1.05 µM | Potency [4]: inconclusive: 0.59 µM [inhibitor, full curve]

O=C(O)CNC(=O)c1c(O)c2ccccc2n(Cc2ccccc2)c1=O
Potency [2]: active: 14.8 µM | Potency [6]: inconclusive: 37.2 µM [inhibitor, single point]

COc1ccc(C(CN(C)C)C2(O)CCCCC2)cc1 (stereo unspecified)
Potency [2]: inconclusive: 37.2 µM [inhibitor, single point] | Potency [6]: inconclusive: 23.5 µM [inhibitor, single point] | Potency [4]: inactive | Potency [14]: inconclusive: 18.5 µM [inhibitor, single point]

Cc1[nH]nc2ccc(-c3cncc(OC[C@@H](N)Cc4c[nH]c5ccccc45)c3)cc12
Potency [2]: active: 0.209 µM | Potency [12]: active: 5.9 µM

CC[C@@H](C(N)=O)N1CCCC1=O
Potency [2]: inactive | Potency [5]: inconclusive: 26.4 µM [inhibitor, single point] | Potency [6]: inconclusive: 23.5 µM [inhibitor, single point]

C[C@]12CCC(=O)C(O)=C1CC[C@@H]1[C@H]3CCC(=O)[C@@]3(C)CC[C@@H]12
Potency [2]: inconclusive: 26.4 µM [inhibitor, partial curve, poor fit] | Potency [3]: inconclusive: 20.9 µM [inhibitor, partial curve, poor fit] | Potency [6]: inconclusive: 23.5 µM [inhibitor, single point] | Potency [4]: inactive

O=C(Oc1ccc([N+](=O)[O-])cc1)N1CCN(Cc2cccc(Oc3ccccc3)c2)CC1
Potency [2]: inactive | Potency [3]: inconclusive: 29.6 µM [inhibitor, single point] | Potency [4]: inconclusive: 23.1 µM [inhibitor, single point]
